Reference: paper PMC6919601, “Identification of Plasmodium dipeptidyl aminopeptidase allosteric inhibitors by high throughput screening” (PLoS ONE, 2019)
“And” between values parts separate entries of the source, which are not always exact repeats. Identical values can stand only once. Screen size: about 110,000 compounds; about 230 (0.21%) showed an effect of 50% or more. The list shows a part of the results.

molecular target: DPAP1 (Plasmodium falciparum, UniProt Q8IIJ9); assay: primary screen, percent inhibition; read by cleavage of a fluorogenic dipeptide substrate; higher = more effect of the substance; set-up: species or system P. falciparum D10 trophozoite lysates; single well
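Further: 30 min substrate incubation versus DMSO and 10 µM JCP410 controls.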

Chain of DPAP1 (Q8IIJ9 whole entry, looked up): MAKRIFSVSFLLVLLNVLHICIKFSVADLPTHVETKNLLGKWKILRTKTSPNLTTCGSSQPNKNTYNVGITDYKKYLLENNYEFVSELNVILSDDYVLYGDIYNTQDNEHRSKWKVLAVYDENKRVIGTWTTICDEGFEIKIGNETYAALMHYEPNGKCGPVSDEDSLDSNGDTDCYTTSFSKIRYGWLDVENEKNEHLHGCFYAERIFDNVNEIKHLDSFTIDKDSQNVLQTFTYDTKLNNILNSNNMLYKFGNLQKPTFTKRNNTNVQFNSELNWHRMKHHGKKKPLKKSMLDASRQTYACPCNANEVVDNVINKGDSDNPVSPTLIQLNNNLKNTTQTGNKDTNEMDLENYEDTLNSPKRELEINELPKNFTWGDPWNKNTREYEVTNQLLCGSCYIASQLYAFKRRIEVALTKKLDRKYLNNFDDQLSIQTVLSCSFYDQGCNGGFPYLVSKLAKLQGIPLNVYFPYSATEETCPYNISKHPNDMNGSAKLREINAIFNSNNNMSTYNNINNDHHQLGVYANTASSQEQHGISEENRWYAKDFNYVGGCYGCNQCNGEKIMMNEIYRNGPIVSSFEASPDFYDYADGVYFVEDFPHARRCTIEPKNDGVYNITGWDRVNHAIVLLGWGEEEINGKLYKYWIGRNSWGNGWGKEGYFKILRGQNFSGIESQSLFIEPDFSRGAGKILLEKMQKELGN

Row | SMILES | % Inhibition @ 10 uM
1 | COc1ccc(OC)c(-c2csc(NC(=O)c3nn(C)c(C)c3Br)n2)c1 | 0.389%
2 | CN(C)c1nc(OCC(=O)Nc2ccc(Cl)cc2)nc(N(C)C)n1 | 0.992%
3 | CC(=O)N1CCC2(CC1)OC(=O)C(C)=C2C(=O)NCCCN1CCOCC1 | 2.11%
4 | CCCCN(C)c1nnnc2c1sc1nc(N3CCOCC3)c3c(c12)CC(C)(C)OC3 | -2.9%
5 | O=C1c2cccnc2C(=O)N1Cc1ccc(S(=O)(=O)NCc2ccccn2)s1 | -0.767%
6 | CCOc1cc(C2NC(=O)N(C)C(C)=C2C(=O)OCCc2ccccc2)cc(Br)c1O (stereo not shown) | 0.997%
7 | Cc1cccc(NC(=O)CCC(=O)O)c1C | 2.4%
8 | COc1ccccc1C1C(C#N)=C(N)SC(N)=C1C#N | 29.7%
9 | CCOc1ccc(CCNS(=O)(=O)c2c(C)nc3sccn3c2=O)cc1OCC | 4.06%
10 | O=C(O)c1ccccc1Oc1nc(Oc2ccccc2C(=O)O)nc(N(c2ccccc2)c2ccccc2)n1 | -7.42%
11 | CN1CCN(C(=O)c2ccccc2[N+](=O)[O-])CC1 | -1.38%
12 | C/C(=C\c1ccccc1)C(C)OC(=O)Nc1ccccc1 (stereo not shown) | 1.35%
13 | O=C(NCc1ccccc1Cl)C1C2C=CC3(CN(Cc4cccs4)C(=O)C13)O2 (stereo not shown) | 10.6%
14 | O=C(NC1(C(F)(F)F)Oc2ccc(Cl)cc2O1)N1CCC2(CC1)OCCO2 (stereo not shown) | -1.2%
15 | CCOc1ccc(/C=C2\N=C(C3CCCCC3)OC2=O)cc1 | 0.605%
16 | Cc1nn(CC(=O)NCCCN2CCc3ccccc3C2)c(=O)c2nn(-c3ccccc3)c(C)c12 | -2.49%
17 | O=C(CCn1c(=O)oc2ccccc21)Nc1ccccc1 | 1.4%
18 | O=C(/C=C/c1cccc([N+](=O)[O-])c1)Nc1ccccc1O | 1.35%
19 | Cn1c(C(=O)N2CCC(C(=O)NCc3cccnc3)CC2)cc2sccc21 | 3.4%
20 | N#CC1=C(N)Oc2cc(O)ccc2C1c1cc(CN2CCOCC2)cs1 (stereo not shown) | 8.11%
21 | CC[C@H](NC(=O)C1(NC(=O)c2ccc(-c3ccccc3Cl)c(Cl)c2)CCCCCC1)C(=O)c1nc2ncccc2o1 | 1.61%
22 | CC(=O)Nc1cccc(NC(=O)C23CC4CC(CC(C4)C2)C3)c1 | 0.962%

Row | SMILES | % Inhibition @ 10 uM
23 | CCC(C)c1ccc(NC(=O)c2ccc(C)cc2)cc1 (stereo not shown) | -1.48%
24 | O=C(NCc1ccco1)c1ccc(CNc2c(N3CCCCC3)c(=O)c2=O)cc1 | 4.79%
25 | Cc1ccc(-c2ccccc2)n1-c1cccc2cccnc12 | 5.3%
26 | COc1cccc(CNc2cnn(C34CC5CC(CC(C5)C3C(=O)O)C4)c(=O)c2Cl)c1 (stereo not shown) | 10.1%
27 | O=C(c1ccc([N+](=O)[O-])cc1Cl)N1CCN(c2ccc(Cl)cc2)CC1 | 2.16%
28 | CCOC(=O)C1=C(CNC(C)C)NC(=O)NC1c1ccccc1 (stereo not shown) | 0.226%
29 | O=C1CSC(c2ccc([N+](=O)[O-])cc2)N1Cc1ccccc1 (stereo not shown) | -2%
30 | CC(C)Cn1cc(NC(=O)Nc2ccc(Cl)cn2)c2ccccc2c1=O | 0.358%
31 | C/C=C(\C)CN(CCO)Cc1ccccc1 | -6.62%
32 | Cc1cccnc1Nc1nc(-c2ccc(O)cc2)cs1 | 4.96%
33 | CC(O)(CC(=O)O)C12CC3CC(CC(C3)C1)C2 (stereo not shown) | -1.97%
34 | COc1ccc(C(=O)Nc2nc(C3COc4ccccc4O3)cs2)cc1OC (stereo not shown) | -1.71%
35 | COCCn1c(CCC(=O)O)ccc1-c1ccc(F)cc1 | 2.21%
36 | CC(C)(C)OC(=O)NC1CCN(S(=O)(=O)c2ccc3c(c2)OCCO3)CC1 | -3.24%
37 | Clc1ccc(N2N=C(c3cccs3)CC2c2cccs2)cc1 (stereo not shown) | -6.27%
38 | C=CCc1ccc(OCc2ccc(C(=O)Nc3ccc4c(c3)OCCO4)o2)c(OC)c1 | 4.84%
39 | Cc1ccccc1OCC(O)Cn1cnc2ccccc21 (stereo not shown) | -4.59%
40 | CCCSc1nc(O)c(C(c2ccccc2)c2ccccc2)c(O)n1 | 4.9%
41 | O=C(CN1C(=O)S/C(=C\c2ccc(Cl)cc2)C1=O)Nc1cccnc1 | 2.92%
42 | CCCOc1ccc(CC(=O)Nc2ccc(Cl)cc2)cc1OC | -3.87%
43 | Nc1nonc1-c1nc2ccccc2n1CC(=O)N1CCN(Cc2ccc3c(c2)OCO3)CC1 | -2.91%
44 | Cc1cccc(Cn2c(=O)n(C(C)C)c(=O)c3oc4ccccc4c32)c1 | -3.15%

Row | SMILES | % Inhibition @ 10 uM
45 | CC(C)CNC(=O)c1cc(S(=O)(=O)N2CCCC2)c(Cl)cc1Cl | -1.1%
46 | CN1CCC(NCC2CCCCC2)CC1 | -1.81%
47 | COc1cc2c(cc1OC)C1(CCOCC1)CN(C)C2 | 0.774% and -1.96%
48 | CCn1c(C)cc(/C=C2\NC(=O)N(CC(=O)Nc3ccccc3)C2=O)c1C | -2.84%
49 | COc1ccccc1N1CCN(C(=O)CN(c2ccccc2)S(C)(=O)=O)CC1 | -2.17%
50 | Cc1ccc(-c2nc(CSCC(=O)NCCCOC(C)C)c(C)o2)cc1 | 0.689%
51 | CN(C)c1ccnc(Sc2c([N+](=O)[O-])ncn2C)c1C#N | 5%
52 | Cc1cc(NS(=O)(=O)c2ccc(NS(=O)(=O)c3ccccc3)cc2)nc(C)n1 | 3.72%
53 | NS(=O)(=O)c1ccc(NC(=O)c2cccs2)cc1 | 7.24%
54 | C=Cc1ccc(Cn2c(C)c(CNCc3ccc(C)o3)c(C(=O)O)c2C)cc1 | 2.99%
55 | Cc1cc(C)c2nc(N3CCCC(C(=O)NCCCN4CC(C)CC(C)C4)C3)sc2c1 (stereo not shown) | 3.4%
56 | Oc1ncnc2[nH]c(N3CCCCC3)nc12 | -2.91%
57 | O=C(Cc1ccc(Cl)cc1)Nc1ccc(Br)cn1 | 6.22%
58 | COc1ccccc1OCC(=O)N(Cc1ccco1)Cc1ccccc1Cl | -2.21%
59 | O=C1CC(c2cccs2)c2ccc3ccccc3c2N1 (stereo not shown) | -3.14%
60 | COc1ccc(CNC(=O)CCn2c(=O)c3cccn3c3cccnc32)cc1 | 3.36%
61 | Cc1nn(Cc2ccc(C(=O)NC3CC3)o2)c(C)c1Cl | -3.9%
62 | Cc1cc(C)n2nc(CC(=O)NCc3ccccc3Cl)nc2n1 | 4.47%
63 | Cc1ccc(-n2nnnc2SCC(=O)c2ccc(O)cc2)cc1 | -4.91%
64 | COc1ccc(OC)c(/C=C2\CCCC3=C2Nc2ncnn2C3c2cc(OC)ccc2OC)c1 (stereo not shown) | 0.0842%
